Assay results from patent publication US20250163167A1 (SYNTHEKINE, published 2025).

T1: hIL10Rb-his (Sino Biological, Catalog#10945) (human, UniProt Q08334 20-220)
T1 construct: Bought; also called Sino Biological cat#10945-H08H; not shown: C-terminal poly-His tag
T1 sequence: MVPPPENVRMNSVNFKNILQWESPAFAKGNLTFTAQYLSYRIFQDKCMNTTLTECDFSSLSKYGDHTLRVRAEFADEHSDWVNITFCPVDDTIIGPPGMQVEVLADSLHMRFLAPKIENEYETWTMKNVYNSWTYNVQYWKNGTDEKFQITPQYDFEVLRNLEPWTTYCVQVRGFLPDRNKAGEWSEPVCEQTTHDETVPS


Columns and labels:
[1] = target: T1, hIL10Rb-his (Sino Biological, …); experiment: SPR Biacore T200; hIL10Rb-his captured on anti-histidine chip, humanized mono-Fc VHH analyte, single cycle kinetics; 1:1 Langmuir fit
Protocol: (§1) All experiments were conducted in 10 mM Hepes, 150 mM NaCl, 0.05% (v/v) Polysorbate 20 (PS20) and 3 mM EDTA (HBS-EP+ buffer) on a Biacore T200 instrument equipped with an anti-histidine capture chip (Cytiva). ˜0.5 μg/mL hIL10Rb-his (Sino Biological cat #10945) was flowed at 5 μl/min for 120 seconds, reaching the capture loads listed in the table below. Following ligand capture, injections of a 2-fold dilution series (50, 25, 12.5, 6.25, 3.13 nM) of humanized, mono-Fc VHHs (see analyte in table) was performed in single cycle kinetics mode. Surface regeneration was achieved by flowing 10 mM glycine-HCl, pH 1.5 (60 seconds, 50 μL/min). Buffer-subtracted sensograms were processed with Biacore T200 Evaluation Software and globally fit with a 1:1 Langmuir binding model (bulk shift set to zero) to extract kinetics and affinity constants (kₐ, kd, KD). RMAX<100 RU indicates surface density compatible with kinetics analysis. Calculated Rmax were generated using the equation Rmax=Load (RU)×valency of ligand×(Molecular weight of analyte/Molecular weight of ligand. Surface activity was defined as the ratio experimental/calculated Rmax. See tables below for sample information and experimental results.

[2] = target: T1, hIL10Rb-his (Sino Biological, …); experiment: SPR; ratio of experimental to calculated Rmax
Protocol: as §1

Kd [1]	koff [1]	kon [1]	Surface Activity [2]	Binder
12.3 nM	0.0056 s⁻¹	460000 M⁻¹ s⁻¹	14%	DR1227 (humanized DR246 IL10Rb VHH), mono-Fc (Fc fusion) EVQLLESGGGLVQPGGSLRLSCAASGYTHSSYCMGWVRQAPGKGLEWVSAIDVDGSTTYADSVKGRFTISRDNSKNTLYLQMNSLRAEDTAVYYCAAEFADCSSNYFLPPGAVRYWGQGTLVTVSSASRV[letters of human IgG4 Fc with S228P N297G (EU numbers) not shown]
7 nM	0.00092 s⁻¹	130000 M⁻¹ s⁻¹		DR1228 (humanized DR246 IL10Rb VHH), mono-Fc (Fc fusion) EVQLLESGGGLVQPGGSLRLSCAASGYTHSSYCMGWVRQAPGKGLEGVSAIDVDGSTTYADSVKGRFTISRDNSKNTLYLQMNSLRAEDTAVYYCAAEFADCSSNYFLPPGAVRYWGQGTLVTVSSASRV[letters of human IgG4 Fc with S228P N297G (EU numbers) not shown]
13.8 nM	0.0096 s⁻¹	700000 M⁻¹ s⁻¹	14%	DR1229 (humanized DR246 IL10Rb VHH), mono-Fc (Fc fusion) EVQLVESGGGLVQPGGSLRLSCAASGYTHSSYCMGWVRQAPGKGLEWVSAIDVDGSTTYADSVKGRFTISRDNSKNTLYLQMNSLRAEDTAVYYCAAEFADCSSNYFLPPGAVRYWGQGTLVTVSSASRV[letters of human IgG4 Fc with S228P N297G (EU numbers) not shown]
7.1 nM	0.00098 s⁻¹	140000 M⁻¹ s⁻¹		DR1230 (humanized DR246 IL10Rb VHH), mono-Fc (Fc fusion) EVQLVESGGGLVQPGGSLRLSCAASGYTHSSYCMGWVRQAPGKGLEGVSAIDVDGSTTYADSVKGRFTISRDNSKNTLYLQMNSLRAEDTAVYYCAAEFADCSSNYFLPPGAVRYWGQGTLVTVSSASRV[letters of human IgG4 Fc with S228P N297G (EU numbers) not shown]
